Among the data in PubChem BioAssay AID1645887 (National Center for Advancing Translational Sciences (NCATS), 2021) are activation values, retold here.

Where “and” joins values, the source holds several entries; their conditions need not be identical. Equal values may be shown once. About 40 (0.2%) of roughly 16,000 compounds were called active. Roughly 1% stayed inconclusive and do not appear here. The call rests on the fitted dose curve; in most records, active means well fitted activation curve with a large enough effect; inconclusive means small, poorly fitted or top-dose-only effect, or another doubt; inactive means no such curve, though single readings can be large or run the other way. Some of the results follow.
On the % scale 0 is the no-effect control and ±100 the full control effect.

Chain of UniProt Q8WZA2 (Q8WZA2 whole entry, looked up): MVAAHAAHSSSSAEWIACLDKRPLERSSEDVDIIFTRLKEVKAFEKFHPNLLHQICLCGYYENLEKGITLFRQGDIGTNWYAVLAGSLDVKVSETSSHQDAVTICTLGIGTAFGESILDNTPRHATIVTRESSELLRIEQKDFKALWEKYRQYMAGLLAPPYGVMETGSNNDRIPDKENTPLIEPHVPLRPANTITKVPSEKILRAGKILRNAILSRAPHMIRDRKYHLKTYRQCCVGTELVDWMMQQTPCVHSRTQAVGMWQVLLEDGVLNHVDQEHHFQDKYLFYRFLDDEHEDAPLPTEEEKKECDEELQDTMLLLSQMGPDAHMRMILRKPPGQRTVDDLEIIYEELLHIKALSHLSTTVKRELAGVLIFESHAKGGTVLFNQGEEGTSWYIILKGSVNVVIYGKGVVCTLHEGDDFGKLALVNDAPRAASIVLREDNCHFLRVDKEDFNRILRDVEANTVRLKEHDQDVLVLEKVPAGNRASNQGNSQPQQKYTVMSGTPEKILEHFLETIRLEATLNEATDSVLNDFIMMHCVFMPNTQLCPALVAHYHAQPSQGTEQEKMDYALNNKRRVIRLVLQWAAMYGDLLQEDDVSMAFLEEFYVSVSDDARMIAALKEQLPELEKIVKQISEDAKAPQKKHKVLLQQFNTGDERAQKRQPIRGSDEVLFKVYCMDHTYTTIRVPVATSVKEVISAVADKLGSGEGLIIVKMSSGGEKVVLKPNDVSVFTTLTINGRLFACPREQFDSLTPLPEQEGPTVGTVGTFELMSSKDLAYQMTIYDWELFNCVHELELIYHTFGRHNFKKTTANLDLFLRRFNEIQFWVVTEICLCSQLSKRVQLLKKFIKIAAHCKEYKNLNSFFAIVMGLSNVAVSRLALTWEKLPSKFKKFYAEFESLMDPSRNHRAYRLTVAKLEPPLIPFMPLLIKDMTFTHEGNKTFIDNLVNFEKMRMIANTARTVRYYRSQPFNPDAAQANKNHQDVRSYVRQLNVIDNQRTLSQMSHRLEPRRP

The assay concerns the target Rap guanine nucleotide exchange factor 4 (Homo sapiens) (UniProt Q8WZA2). In words: Validation qHTS for agonist of cAMP-regulated guanine nucleotide exchange factor 4 (EPAC2).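 Further: exchange makes BODIPY-GDP fluorescence drop when released from Rap1B; series mostly up to about 150 µM.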 The following applies: EPAC2 Rap1B BODIPY-GDP exchange, fluorescence; activation: hits give high values. In outline:
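Fluorescent exchange assay: 100 nM EPAC2 with 250 nM RAP1B-BODIPY-GDP and 50 uM GDP; compound added, 5 min at room temperature, then read (ex 480/em 540 nm) every 5 min for 30 min. Normalized to 6.5 mM cAMP agonist control.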
Background: In qHTS, concentration-response curves come from the screen itself.
Turning to `C[C@@]12C(=O)OC(=O)[C@@]1(C)C1CCC2O1`, the activation is inactive: -23.5%.
Then `COCCn1c(=O)c(C)nc2cnc(Oc3cccc(Cl)c3)nc21`, with inactive: -12.3%; and `O=C(c1csnn1)N1CCC2(CCCN(c3ccccn3)C2)CC1`, with inactive: 5.52%.
In the case of `Cn1c(=O)c2[nH]cnc2n(C)c1=O`, the activation was inactive: -4.75% [middle of 5 runs].
The same measure for `CS(=O)(=O)c1ccc(C2=C(c3ccccc3)C(=O)OC2)cc1`: inactive: 5.43%; for `O=C(OCC1(COC(=O)c2cccnc2)CCCC(COC(=O)c2cccnc2)(COC(=O)c2cccnc2)C1O)c1cccnc1`: inactive: -5.76%; for `Oc1ccc(Cl)c2c1CCC2`: inactive: -23.7%.
The same measure for `CC(C)[C@@H](CSc1ccccc1)N1CCN(Cc2ccccc2)CCC1=O`: inactive: -13.2%; for `CC1=C(C(N)=O)N2C(=O)[C@@H](NC(=O)Cc3ccccc3)C2SC1` (some centres undefined): inactive: 7.45%.
The same measure for `COC1C[C@@H](O[C@@H]2C(C)C(=O)OC(C)C(C)[C@H](OC(C)=O)C(C)C(=O)[C@@]3(CO3)CC(C)C(OC3OC(C)CC(N(C)C)[C@H]3OC(C)=O)C2C)OC(C)[C@@H]1OC(C)=O` (some centres undefined): inactive: -11.2%; for `Cn1cccc1C(=O)N1CCC2(CCCN(C(=O)Nc3cccc(C#N)c3)C2)CC1`: inactive: -24.1%; for `Cc1cnc(-n2ncc(C(=O)NCCc3ccncc3)c2-c2cccs2)nc1-c1ccc(F)cc1`: inactive: 2.42%.
In the case of `C/C=C(\C)C(=O)O[C@H]1CC(C)=C2C(=O)C=C(C)C2[C@@H]2OC(=O)[C@@](C)(OC(=O)C=C(C)C)C21` (some centres undefined), the activation is inactive: -12.5%.
Then `CC(C)[C@H](CO)Nc1nc(Nc2cccc(Cl)c2)c2ncn(C(C)C)c2n1`, with inactive: 0.823%; and `CCCNC(=O)[C@H]1O[C@@H]1C(=O)N[C@H](C(=O)N1CCC[C@H]1C(=O)OC)[C@@H](C)CC`, with inactive: 1.19%.
Then `O=c1c2ccccc2oc2ccc(-c3ccoc3)cc12`, with inactive: -9.01%; and `COc1ccc(CCNC[C@H](O)c2ccc(O)cc2)cc1OC`, with inactive: -8.14%.
On to `O=c1c(-c2cc(F)cc(F)c2)nc2cncnc2n1C1CC1`, for which the activation was inactive: 0.67%.
Then `C#C[C@]1(O)CC[C@H]2[C@@H]3CCc4cc(OC5CCCC5)ccc4[C@H]3CC[C@@]21C`, with inactive: -28%.
Then `O=C(c1cc(C(F)(F)F)cc(C(F)(F)F)c1)N1CCC2(CC1)CN(c1ncccn1)C2`, with inactive: -30.5%; and `CN(C)CCC=C1c2ccccc2CCc2ccccc21`, with inactive: -8.63% and inactive: 7.74% and inactive: -19.1%; and `COc1ccc2c(c1)-c1nc(-n3ncc(C(=O)N(C)C(C)c4ccon4)c3C3CC3)ncc1CC2` (centres undefined), with inactive: -3.51%.
Then `Cc1ccnc2c1NC(=O)c1cccnc1N2C1CC1`, with inactive: -0.816%; and `CN(CCc1ccc(Cl)c(Cl)c1)CCN1CCCC1`, with inactive: -2.2% and inactive: 7.59%.
In the case of `CC1=CC(=O)CC(C)(C)C1(O)/C=C/C(C)=C/C(=O)O` (centres undefined), the activation is inactive: -22.8%.
The same measure for `O=S(=O)(c1ccccc1)N1CCC2(CC1)CN(c1ccncc1)C2`: inactive: -7.03%; for `CN1CCN(c2ncncc2-c2ccccc2C(F)(F)F)CC1`: inactive: -5.22%.
The same measure for `CC(=O)N1CCC2(CC1)CCN(c1cccc(-c3ccccc3)c1)CC2`: inactive: 7.44%; for `NC(=O)C(=O)O`: inactive: -5.52%.
The same measure for `O=c1c(-c2ccc(F)cc2)nc2cnc(Oc3cccc(Cl)c3)nc2n1C[C@H]1CCCO1`: inactive: 10.2%; for `CN(C)C(=O)c1ccc(-c2nc(Nc3ccncc3)c3ccccc3n2)cc1`: inactive: -3.3%; for `Cc1nc(NCc2c(F)cccc2F)sc1-c1ccn(CCN2CCOCC2)n1`: inactive: -13.4%.
Regarding `CC(C)C(NS(C)(=O)=O)c1nnc2n1CCN(Cc1ccc(Cl)cc1)CC2` (centres undefined), the activation was inactive: -24.3%.
Regarding `CN(C)c1ncc2nc(CCc3ccccc3)c(=O)n(Cc3cccs3)c2n1`, the activation was inactive: 14.8%.
Regarding `CC1CC[C@@]2(C(=O)O)CCC3(C)C(=CCC4[C@]5(C)CC(O)C(O)[C@](C)(CO)C5C(O)C[C@@]43C)C2C1C` (some centres undefined), the activation is inactive: -57.9%.
In the case of `O=C(c1cccc(F)c1)N1CCC2(CCCN(c3ccncc3)C2)CC1`, the activation is inactive: 9.07%.
Then `COc1cc(OC)c(OC)cc1CN1CCCC(c2nc(C)ncc2-c2ccc(F)cc2)C1` (centres undefined), with inactive: -4.08%.
As for `O=C(C[n+]1csc2ccccc21)c1cccc([N+](=O)[O-])c1`, the activation was inactive: -5.24%.
The same measure for `O=C(c1ccncc1)N1CCC[C@@]2(CCN(c3ccccn3)C2)C1`: inactive: -0.98%; for `O=C(NCCc1nnc2n1CCN(Cc1cc3ccccc3o1)CC2)c1ccoc1`: inactive: -25.3%; for `OC(Br)C(O)C(O)N1CCCc2ccccc21` (centres undefined): inactive: -9.29%.
The same measure for `C=CCc1ccc(OC(=O)c2ccccc2)c(OC)c1`: inactive: 1.58%; for `O=S1(=O)CCO[C@H]2Cc3ccccc3[C@H]2N1Cc1ccccc1`: inactive: -27.7%.
The same measure for `OC[C@H]1O[C@@H](n2cnc3c(=S)nc[nH]c32)[C@H](O)[C@@H]1O`: inactive: -8.98%; for `COc1cc(-c2ccc(N=Nc3ccc4c(S(=O)(=O)O)cc(S(=O)(=O)O)c(N)c4c3O)c(OC)c2)ccc1N=Nc1ccc2c(S(=O)(=O)O)cc(S(=O)(=O)O)c(N)c2c1O`: inactive: -15.2% and inactive: -10.5%.
For the compound `CCN(CC)CCOC(=O)C(c1ccccc1)C1CCCCC1` (centres undefined), the activation was inactive: -1.91%.
Then `CN(C)c1cc2c(Nc3ccc4c(cnn4Cc4ccccc4)c3)ncnc2cn1`, with inactive: 1.6%; and `COc1ccccc1-c1ccnc(-n2ncc(C(=O)NCc3cccnc3)c2C)n1`, with inactive: 8.95%; and `CN(C)C(=O)c1ccc(-c2cncnc2-n2ccnc2)cc1`, with inactive: -14%.
Then `Cc1nc2cnc(Oc3ccccc3)nc2n(CCC#N)c1=O`, with inactive: -2.69%; and `COCCN1CCN(C(=O)c2cnn(-c3nccc(-c4ccco4)n3)c2C2CC2)CC1`, with inactive: -4.01%.
`COCC1=C(C(=O)OC(C)OC(=O)OC(C)C)N2C(=O)[C@@H](NC(=O)/C(=N\OC)c3csc(N)n3)[C@H]2SC1` (some centres undefined): the activation was inactive: -9.12% and inactive: -2.29%.
The same measure for `COc1cc(=O)n2c(c1C(=O)NCc1ccc3c(c1)OCO3)CCN(C(=O)c1ccc(C)cc1)CC2`: inactive: -9.24%.
The same measure for `O=C(CCc1nc2ccccc2s1)N1CCOc2ccc(CN3CCc4sccc4C3)cc2C1`: inactive: -8.66%; for `CO[C@H]1[C@H](NC(=O)c2ccco2)c2ccccc2C12CCN(Cc1cc(Cl)ccc1O)CC2`: inactive: 4.23%; for `COc1ccc(-c2nc3cnc(Nc4cccc(OC)c4)nc3n(CCC#N)c2=O)cc1`: inactive: -13.7%.
Consider `N#CC(=C(/N)Sc1ccccc1N)/C(C#N)=C(/N)Sc1ccccc1N`, for which the activation was inactive: -17.7%.
Take `COc1cc([C@@H]2c3cc4c(cc3[C@H](O)C3COC(=O)[C@@H]32)OCO4)cc(OC)c1OC` (some centres undefined): the activation was inactive: -45.8%.
As for `CC(C)(C)c1ccc(CN2CCN(C(c3ccccc3)c3ccc(Cl)cc3)CC2)cc1` (centres undefined), the activation is inactive: -8.25%.
The same measure for `COC(=O)[C@@H]1CCCN1Cc1ccc2c(c1)CN(Cc1cccc(Cl)c1)CCO2`: inactive: 3.23%; for `CCCN1CCC(=O)N([C@H](COc2ccccc2)Cc2ccccc2)CC1`: inactive: -1.32%.
The same measure for `NS(=O)(=O)c1cccc2c1c([N+](=O)[O-])cc1nc(O)c(O)nc12`: inactive: -21.1% and inactive: -17%.
The same measure for `O=C(c1ccncc1)N1CCC[C@@]2(CCN(c3cccc(-c4ccccc4)c3)C2)C1`: inactive: -7.28%; for `N#Cc1cccc(-c2nccc(NCc3cccnc3)n2)c1`: inactive: -7.06%.
With `COc1cccc2c1CCC1=CC(=O)CC[C@@]12C`, the activation was inactive: -9.3%.
Then `C=CC(=O)c1ccc2ccccc2c1`, with inactive: -3.99%; and `C=CCOc1ccc(CC(=O)O)cc1Cl`, with inactive: 14.9%.
The same measure for `O=[N+]([O-])c1ccc(Cn2cc(-c3cccc(C(F)(F)F)c3)nn2)cc1`: inactive: -16.8%.
The same measure for `COC(=O)C1=C(C)NC(C)=C(C(=O)O[C@H]2CCN(Cc3ccccc3)C2)[C@H]1c1cccc([N+](=O)[O-])c1`: inactive: 10.6%; for `Cc1c(C(=O)NCCc2cccnc2)cnn1-c1ncc2c(n1)-c1ccccc1CC2`: inactive: -14.5%.
`O=C(NCc1nnc2n1CCN(C(=O)/C=C/c1ccccc1)CC2)c1cccc(F)c1`: the activation is inactive: -12%.
Then `NC(N)=NCc1cccc(I)c1`, with inactive: -3.03% and inactive: 7.83%; and `CCCCC(CC)CN1CN(CC(CC)CCCC)CC(C)(N)C1` (centres undefined), with inactive: -8.76% and inactive: -19.9%.
Then `Cc1cccc(CN2CCc3nnc(C(C)NC(=O)C4CCOCC4)n3CC2)c1` (centres undefined), with inactive: -11.5%; and `COc1cc2c(cc1OC)C(=O)C(CC1CCN(Cc3ccccc3)CC1)C2` (centres undefined), with inactive: 9.64%; and `CC(=O)OCC(=O)[C@@]1(O)CCC2C3CC(C)C4=CC(=O)C=CC4(C)C3C(O)CC21C` (some centres undefined), with inactive: -21.4%.
Then `CCCCCC[C@@H](CCC)C(=O)O`, with inactive: -8.38%; and `COCC(=O)Nc1cc(C(=O)N2CCN(c3ccccc3)C(=O)C2)cc2nc(-c3ccccc3)n(C)c12`, with inactive: -13%; and `C[C@H]1CCC(=O)N([C@H](CSc2ccccc2)Cc2ccccc2)CC1`, with inactive: -16%.
With `O=C(Nc1cccc(F)c1)N1CC2(CCN(C(=O)c3ccco3)CC2)C1`, the activation is inactive: -5.74%.
Then `Nc1ncnc2nc(Cl)[nH]c12`, with inactive: -7.47%; and `COC(C)=O`, with inactive: 11.2%.
The same measure for `COc1cccc(OC)c1CN1CCC2(CCC(CNC(=O)c3ccccc3)O2)CC1` (centres undefined): inactive: -3.17%; for `N#C/C(=C1\SCC(c2ccccc2Cl)S1)n1ccnc1` (centres undefined): inactive: -11.9%.
